The whole screen tested about 52,000 compounds, of which about 1,700 (3.3%) were called active. Rule as the data show it: active = survival mostly below about 52% (no sharp cut-off); inactive = mostly above about 56%. Some of the results follow.
System: Wild type
Experiment: growth inhibition of S. aureus wild type versus tarO mutant, primary screen, teichoic acid synthesis inhibitors, RN4220, OD600 (AID 463173)
Details: S. aureus RN4220 wild type/DeltatarO growth, OD600, 18 h, stronger effect = lower value, screened at 18.75 µg/mL (by protocol)

| Compound | survival |
| --- | --- |
| CCCNS(=O)(=O)c1ccc(OCC(=O)NCc2ccccn2)cc1 | inactive: 122% |
| CCC(=O)N1c2nc(C(C)C)nn2C2(CCCCC2)[C@@H]2CCCC[C@@H]21 | inactive: 103% |
| Cc1cc(C)cc(NC(=O)Cn2nnc(C(=O)NCc3ccco3)c2N)c1 | inactive: 87% |
| O=C(CN1C(=O)COc2ccc(S(=O)(=O)N3CCCCCC3)cc21)N1CCN(c2ccccc2)CC1 | inactive: 86% |
| COc1ccc(Cl)cc1NC(=O)C(C)N1Cc2ccccc2C1=O (stereo unspecified) | inactive: 85% |
| COCCNC(=O)Cn1c(=O)n(-c2ccc(C)c(C)c2)c(=O)c2c3c(sc21)CCCCC3 | inactive: 84% |
| CCOC(=O)c1cccc(NC(=O)C2CCN(c3nnc(C)c4c(C)n(-c5ccccc5)nc34)CC2)c1 | inactive: 77% |
| CCOc1cc(CNC(=O)C(NS(=O)(=O)c2cccs2)C(C)C)cc(OCC)c1OCC (stereo unspecified) | inactive: 65% |
| O=C(Cn1c(SCc2cccc(F)c2)nc2ccncc21)Nc1ccc(Cl)cc1F | inactive: 50% |
| COc1ccc(NCc2cccn2-c2nnc(N3CCOCC3)s2)c(OC)c1 | inactive: 70% |
| COc1ccc(N2CCN(S(=O)(=O)CCNC(=O)Cc3ccc(-c4ccccc4)cc3)CC2)cc1 | inactive: 115% |
| COc1ccc(C(=O)Nc2ccc3nc(N4CCCCC4)cc(C)c3c2)c(OC)c1 | inactive: 75% |
| Cc1cccc(C)c1NC(=O)CSc1nnc(C)n1Cc1ccccc1 | inactive: 104% |
| Cc1cn2c(=O)cc(COc3cccc(NC(=O)c4cccc(F)c4)c3)nc2s1 | inactive: 93% |
| CCOC(=O)c1c(NC(C)=O)c2c3c(sc2n1Cc1cccc(Cl)c1)CCCC3 | inactive: 101% |
| Cc1ccc(C(CC(=O)Nc2ccc(C)cc2C)N2Cc3ccccc3C2=O)cc1 (stereo unspecified) | inactive: 110% |
| CCOc1ccccc1CNC(=O)c1cccc(NC(=O)c2nsc3ccccc23)c1 | inactive: 63% |
| Cc1cc(C)c(S(=O)(=O)Nc2ccc3oc4c(c3c2)C(=O)CC(C)(C)C4)cc1C | inactive: 86% |
| COc1ccc(-c2cnc(C)o2)cc1S(=O)(=O)Nc1ccc(F)cc1F | inactive: 121% |

| Compound | survival |
| --- | --- |
| COc1cc(OC)c(NC(=O)c2cn(C3CCCC3)c(=O)c3c2c2ccccc2n3C)cc1Cl | inactive: 80% |
| O=C(c1ccc(Br)cc1)N(Cc1cccs1)c1ccc(F)cc1 | inactive: 99% |
| CN1CCN(C(=O)Cn2ncc3c4ccccc4n(Cc4ccc(F)cc4)c3c2=O)CC1 | inactive: 98% |
| COc1cc2c(cc1OC)C(COc1ccc(F)cc1)N(C(=O)c1cccc(F)c1)CC2 (stereo unspecified) | inactive: 60% |
| CN(C)CCCNC(=O)C(=O)NCC(c1ccc2c(c1)OCO2)N1CCOCC1 (stereo unspecified) | inactive: 124% |
| Cc1nc2nc(SCC(=O)Nc3ccccc3Cl)nn2c(C)c1Cc1ccccc1 | active: -3% |
| CCOCCn1ccc2c(OCC(=O)Nc3cccc([N+](=O)[O-])c3)cccc2c1=O | inactive: 128% |
| CCCOc1ccc(C2C(=O)N(C3CCCCCC3)CC(=O)N2CCC2=CCCCC2)cc1OC (stereo unspecified) | inactive: 123% |
| Cc1cccn2c(=O)c(/C=C(\C#N)c3nc4ccccc4s3)c(Oc3ccc(F)cc3)nc12 | inactive: 90% |
| Cc1cc(N(CCO)Cc2ccccc2)n2nc(-c3ccc(C(C)(C)C)cc3)nc2n1 | inactive: 85% |
| CC(C)Cn1c(N2CCN(C(=O)c3sc4ccccc4c3Cl)CC2)nc2ccccc21 | inactive: 115% |
| COc1cccc(C(=O)Nc2ccccc2OCc2cc(=O)n3ccccc3n2)c1 | inactive: 99% |
| Cc1noc(/C=C/c2cccs2)c1S(=O)(=O)N1CCC(C(=O)NCc2ccc(Cl)cc2)CC1 | inactive: 104% |
| COc1ccccc1CN1CCNC(=O)C1=O | inactive: 77% |
| COc1ccc(N(Cc2nnc3n2CCCCC3)C(=O)Nc2cccc(C)c2)cc1Cl | inactive: 71% |
| CCOc1ccc(/C=C(\C(=O)N2CCCC2)n2ccccc2=O)cc1 | inactive: 113% |
| Cn1c(=O)c2cc(C(=O)NC3CCCCCC3)sc2c2ccccc21 | inactive: 89% |
| COc1ccc(-c2coc3c2c(C)cc2oc(=O)c(CC(=O)O)c(C)c23)cc1 | inactive: 49% |
| COc1ccc(NC(=O)C(CC(C)C)NC(=O)C2CCCCC2)cc1 (stereo unspecified) | inactive: 58% |

| Compound | survival |
| --- | --- |
| CCOc1ccc(CN2CCc3nc(N4CCN(c5ccccn5)CC4)ncc3C2)cc1OC | inactive: 129% |
| O=C(Cn1ncc2c3ccccc3n(Cc3ccccc3)c2c1=O)NC1CCCCCC1 | inactive: 120% |
| Cc1ccc(C(=O)c2cn(Cc3ccccc3C)c3nc(C)ccc3c2=O)cc1 | inactive: 61% |
| Cc1ccccc1-c1cc2nccc(-c3cc(Cl)ccc3O)n2n1 | inactive: 68% |
| COc1ccc(-c2cn3c(n2)sc2cc(C(=O)NCc4cccc(F)c4)ccc23)cc1 | inactive: 99% |
| Cc1ccc(NC(=O)Cn2c(=O)n(Cc3ccc4c(c3)OCO4)c(=O)c3ccccc32)cc1 | inactive: 87% |
| CCCc1noc(-c2ccc(NCc3ccc(C)cc3)c([N+](=O)[O-])c2)n1 | inactive: 87% |
| Cc1oc2c(cc(NS(=O)(=O)c3ccc(Cl)cc3)c3ccccc32)c1C(=O)OCc1ccccc1 | inactive: 65% |
| CCCc1cnc2c(c1SCc1cccc(F)c1)c(=O)n(C)c(=O)n2C | inactive: 67% |
| CN(Cc1ccccc1)C1CCNCC1 | inactive: 113% |
| Cc1nc(C)c(CCNS(=O)(=O)c2ccc(F)cc2)s1 | inactive: 131% |
| Cc1ccc(NC(=O)CN2C(=O)COc3ccc(S(=O)(=O)NC4CCCC4)cc32)c(Cl)c1 | inactive: 83% |
| COc1ccc(CNC(=O)c2cnc3sc(N4CCCC4)nn3c2=O)c(OC)c1 | inactive: 84% |
| CCc1ccc(Nc2nnc(-n3nc(C)cc3C)c3ccccc23)cc1 | inactive: 130% |
| CCCCNC(=O)CSc1nc2cc3c(cc2c(=O)n1CCCCCC(=O)NCc1ccc(OC)cc1)OCO3 | inactive: 63% |
| COc1ccc(CNC(=O)Cc2csc3nc(-c4ccc(F)cc4)cn23)cc1 | inactive: 68% |
| Cc1ccccc1C(=O)NCCc1sc(-c2ccc(Cl)cc2)nc1C | inactive: 143% |
| NC(=O)Nc1nc2cc(Cl)cc(Cl)c2[nH]c1=O | inactive: 113% |

Source: PubChem BioAssay AID463173 (ICCB-Longwood Screening Facility, Harvard Medical School, 2010)
